# The supplement of paper PMC8728848
# This is one part of the list.
# Tests used:
# Experiment in all cases: glycan array binding signal (z-score within array); higher = stronger binding
# Details in all cases: glycan notation: IUPAC condensed, linker removed; mutation: N288D, K313I
# [1] = biological target: Fuc(a1-2)Gal(b1-4)GlcNAc(b1-3)Gal(b1-4)GlcNAc(b1-2)Man(a1-3)[Fuc(a1-2)Gal(b1-4)GlcNAc(b1-3)Gal(b1-4)GlcNAc(b1-2)Man(a1-6)]Man(b1-4)GlcNAc(b1-4)GlcNAc
# Outline: (§1)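 Arrays were curated from the Consortium for Functional Glycomics database, 3228 in total, and kept only where the protein sequence was available. Binding is expressed as a within-array Z-score. This score was averaged across arrays of the same protein sequence at different concentrations or buffers and across linkers, and negative values can be read as non-binding.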
# [2] = biological target: Fuc(a1-2)Gal(b1-4)GlcNAc(b1-3)Gal(b1-4)GlcNAc(b1-3)Gal(b1-4)GlcNAc
# Outline: as §1
# [3] = biological target: Fuc(a1-2)Gal(b1-4)GlcNAc(b1-3)GalNAc
# Outline: as §1
# [4] = biological target: Fuc(a1-2)Gal(b1-4)GlcNAc(b1-3)[Fuc(a1-2)Gal(b1-4)GlcNAc(b1-6)]GalNAc
# Outline: as §1
# [5] = biological target: Fuc(a1-2)Gal(b1-4)GlcNAc(b1-3)[Fuc(a1-3)[Gal(b1-4)]GlcNAc(b1-6)]Gal(b1-4)Glc
# Outline: as §1
# [6] = biological target: Fuc(a1-2)Gal(b1-4)GlcNAc(b1-6)GalNAc
# Outline: as §1
# [7] = biological target: Fuc(a1-2)Gal(b1-4)GlcNAc6S
# Outline: as §1
# [8] = biological target: Fuc(a1-2)Gal(b1-4)[Fuc(a1-3)]GlcNAc
# Outline: as §1
# [9] = biological target: Fuc(a1-2)Gal(b1-4)[Fuc(a1-3)]GlcNAc(b1-2)Man(a1-3)[Fuc(a1-2)Gal(b1-4)[Fuc(a1-3)]GlcNAc(b1-2)Man(a1-6)]Man(b1-4)GlcNAc(b1-4)[Fuc(a1-6)]GlcNAc
# Outline: as §1
# [10] = biological target: Fuc(a1-2)Gal(b1-4)[Fuc(a1-3)]GlcNAc(b1-2)[Fuc(a1-2)Gal(b1-4)[Fuc(a1-3)]GlcNAc(b1-4)]Man(a1-3)[Fuc(a1-2)Gal(b1-4)[Fuc(a1-3)]GlcNAc(b1-2)Man(a1-6)]Man(b1-4)GlcNAc(b1-4)GlcNAc
# Outline: as §1
# [11] = biological target: Fuc(a1-2)Gal(b1-4)[Fuc(a1-3)]GlcNAc(b1-3)Gal(b1-4)[Fuc(a1-3)]GlcNAc
# Outline: as §1
# [12] = biological target: Fuc(a1-2)Gal(b1-4)[Fuc(a1-3)]GlcNAc(b1-3)Gal(b1-4)[Fuc(a1-3)]GlcNAc(b1-3)Gal(b1-4)[Fuc(a1-3)]GlcNAc
# Outline: as §1
# [13] = biological target: Fuc(a1-2)Gal(b1-4)[Fuc(a1-3)]GlcNAc(b1-3)GalNAc
# Outline: as §1
# [14] = biological target: Fuc(a1-2)Gal(b1-4)[Fuc(a1-3)]GlcNAc(b1-3)[Neu5Ac(a2-6)Gal(b1-4)GlcNAc(b1-6)]Gal(b1-4)Glc
# Outline: as §1
# [15] = biological target: Fuc(a1-2)Gal3S(b1-4)GlcNAc
# Outline: as §1
# [16] = biological target: Fuc(a1-2)Gal6S(b1-3)GlcNAc
# Outline: as §1
# [17] = biological target: Fuc(a1-2)Gal6S(b1-3)GlcNAc6S
# Outline: as §1
# [18] = biological target: Fuc(a1-2)Gal6S(b1-4)Glc
# Outline: as §1
# [19] = biological target: Fuc(a1-2)Gal6S(b1-4)Glc6S
# Outline: as §1
# [20] = biological target: Fuc(a1-2)[Gal(a1-3)]Gal
# Outline: as §1
# [21] = biological target: Fuc(a1-2)[Gal(a1-3)]Gal(b1-3)GalNAc
# Outline: as §1
# [22] = biological target: Fuc(a1-2)[Gal(a1-3)]Gal(b1-3)GalNAc(b1-3)Gal(a1-4)Gal(b1-4)Glc
# Outline: as §1
# [23] = biological target: Fuc(a1-2)[Gal(a1-3)]Gal(b1-3)GlcNAc
# Outline: as §1
# [24] = biological target: Fuc(a1-2)[Gal(a1-3)]Gal(b1-3)GlcNAc(b1-2)Man(a1-3)[Fuc(a1-2)[Gal(a1-3)]Gal(b1-3)GlcNAc(b1-2)Man(a1-6)]Man(b1-4)GlcNAc(b1-4)GlcNAc
# Outline: as §1
# [25] = biological target: Fuc(a1-2)[Gal(a1-3)]Gal(b1-3)GlcNAc(b1-2)Man(a1-3)[Fuc(a1-2)[Gal(a1-3)]Gal(b1-3)GlcNAc(b1-2)Man(a1-6)]Man(b1-4)GlcNAc(b1-4)[Fuc(a1-6)]GlcNAc
# Outline: as §1
# [26] = biological target: Fuc(a1-2)[Gal(a1-3)]Gal(b1-3)GlcNAc(b1-3)GalNAc
# Outline: as §1
# [27] = biological target: Fuc(a1-2)[Gal(a1-3)]Gal(b1-3)GlcNAc(b1-6)GalNAc
# Outline: as §1
# [28] = biological target: Fuc(a1-2)[Gal(a1-3)]Gal(b1-4)Glc
# Outline: as §1
# [29] = biological target: Fuc(a1-2)[Gal(a1-3)]Gal(b1-4)GlcNAc
# Outline: as §1
# [30] = biological target: Fuc(a1-2)[Gal(a1-3)]Gal(b1-4)GlcNAc(b1-2)Man
# Outline: as §1
binder,measurement,setting,value
"Langerin (Homo sapiens), Q9UJ71 (protein) STLNAQIPELKSDLEKASALNTKIRALQGSLENMSKLLKRQNDILQVVSQGWKYFKGNFYYFSLIPKTWYSAEQFCVSRNSHLTSVTSESEQEFLYKTAGGLIYWIGLTKAGMEGDWSWVDDTPFNKVQSARFWIPGEPNDAGNNEHCGNIKAPSLQAWNDAPCDITFLFICKRPYVPSEP",glycan array binding signal (z-score),[1],-0.021
same,glycan array binding signal (z-score),[2],-0.248
same,glycan array binding signal (z-score),[3],-0.095
same,glycan array binding signal (z-score),[4],-0.036
same,glycan array binding signal (z-score),[5],-0.34
same,glycan array binding signal (z-score),[6],-0.118
same,glycan array binding signal (z-score),[7],-0.187
same,glycan array binding signal (z-score),[8],-0.29
same,glycan array binding signal (z-score),[9],-0.029
same,glycan array binding signal (z-score),[10],-0.047
same,glycan array binding signal (z-score),[11],-0.085
same,glycan array binding signal (z-score),[12],-0.034
same,glycan array binding signal (z-score),[13],0.324
same,glycan array binding signal (z-score),[14],-0.271
same,glycan array binding signal (z-score),[15],-0.194
same,glycan array binding signal (z-score),[16],-0.321
same,glycan array binding signal (z-score),[17],0.09
same,glycan array binding signal (z-score),[18],0.114
same,glycan array binding signal (z-score),[19],-0.227
same,glycan array binding signal (z-score),[20],1.32
same,glycan array binding signal (z-score),[21],-0.256
same,glycan array binding signal (z-score),[22],-0.347
same,glycan array binding signal (z-score),[23],-0.252
same,glycan array binding signal (z-score),[24],-0.237
same,glycan array binding signal (z-score),[25],0.837
same,glycan array binding signal (z-score),[26],-0.166
same,glycan array binding signal (z-score),[27],-0.26
same,glycan array binding signal (z-score),[28],-0.194
same,glycan array binding signal (z-score),[29],-0.31
same,glycan array binding signal (z-score),[30],-0.289
